Sequences and labels used below:
B1: CAS-002: SMIP construct Vk3:VH5 JH4 CDRL1 (T25A); CDRH3 (M99F), SEQ ID NO:48 (protein)
chain: MEAPAQLLFLLLLWLPDTTGEIVLTQSPATLSLSPGERATLSCRASENVYSYLAWYQQKPGQAPRLLIYFAKTLAEGIPARFSGSGSGTDFTLTISSLEPEDFAVYYCQHHSDNPWTFGQGTKVEIKGGGGSGGGGSGGGGTGEVQLVQSGAEVKKPGESLKISCKGSGYSFTGYNMNWVRQMPGKGLEWMGNIDPYYGGTTYNRKFKGQVTISADKSISTAYLQWSSLKASDTAMYYCARSVGPFDYWGQGTLVTVSSDQ[sequence of human IgG1 Fc with changes omitted]
modifications: CD37 specific binding protein
B2: CAS-003: SMIP construct Vk3:VH5 JH5a CDRL1 (T25A); CDRH3 (M99F; Y102S), SEQ ID NO:52 (protein)
chain: MEAPAQLLFLLLLWLPDTTGEIVLTQSPATLSLSPGERATLSCRASENVYSYLAWYQQKPGQAPRLLIYFAKTLAEGIPARFSGSGSGTDFTLTISSLEPEDFAVYYCQHHSDNPWTFGQGTKVEIKGGGGSGGGGSGGGGTGEVQLVQSGAEVKKPGESLKISCKGSGYSFTGYNMNWVRQMPGKGLEWMGNIDPYYGGTTYNRKFKGQVTISADKSISTAYLQWSSLKASDTAMYYCARSVGPFDSWGQGTLVTVSSDQ[sequence of human IgG1 Fc with changes omitted]
modifications: CD37 specific binding protein
B3: CAS-017: human-mouse hybrid SMIP Vk3:mVH, 16aa linker, SSC-P hinge, SEQ ID NO:30 (252 without leader) (protein)
chain: MEAPAQLLFLLLLWLPDTTGEIVLTQSPATLSLSPGERATLSCRTSENVYSYLAWYQQKPGQAPRLLIYFAKTLAEGIPARFSGSGSGTDFTLTISSLEPEDFAVYYCQHHSDNPWTFGQGTKVEIKGGGGSGGGGSGGGGASAVQLQQSGPESEKPGASVKISCKASGYSFTGYNMNWVKQNNGKSLEWIGNIDPYYGGTTYNRKFKGKATLTVDKSSSTAYMQLKSLTSEDSAVYYCARSVGPMDYWGQGTSVTVSSS[sequence of human IgG1 Fc with changes omitted]
modifications: CD37 specific binding protein
B4: CAS-014: mouse-human hybrid SMIP mVH:Vk3, 22aa linker, SSC-P hinge, SEQ ID NO:24 (251 without leader) (protein)
chain: MEAPAQLLFLLLLWLPDTTGAVQLQQSGPESEKPGASVKISCKASGYSFTGYNMNWVKQNNGKSLEWIGNIDPYYGGTTYNRKFKGKATLTVDKSSSTAYMQLKSLTSEDSAVYYCARSVGPMDYWGQGTSVTVSSGGGGSGGGGSGGGGSGGGGSASEIVLTQSPATLSLSPGERATLSCRTSENVYSYLAWYQQKPGQAPRLLIYFAKTLAEGIPARFSGSGSGTDFTLTISSLEPEDFAVYYCQHHSDNPWTFGQGTKVEIKGSS[sequence of human IgG1 Fc with changes omitted]
modifications: CD37 specific binding protein
B5: CAS-062: SMIP construct Vk3:CDR-H3 JH6 CDRL1 (T25A); CDRH3 (Y102V), SEQ ID NO:254 (protein)
chain: EIVLTQSPATLSLSPGERATLSCRASENVYSYLAWYQQKPGQAPRLLIYFAKTLAEGIPARFSGSGSGTDFTLTISSLEPEDFAVYYCQHHSDNPWTFGQGTKVEIKGGGGSGGGGSGGGGTGEVQLVQSGAEVKKPGESLKISCKGSGYSFTGYNMNWVRQMPGKGLEWMGNIDPYYGGTTYNRKFKGQVTISADKSISTAYLQWSSLKASDTAMYYCARSVGPMDVWGQGTTVTVSSDQ[sequence of human IgG1 Fc with changes omitted]
modifications: CD37 specific binding protein
B6: CAS-001: CD37-specific SMIP construct Vk3:VH5-51, 16aa linker, SSC-P hinge, SEQ ID NO:6 (protein)
chain: MEAPAQLLFLLLLWLPDTTGEIVLTQSPATLSLSPGERATLSCRTSENVYSYLAWYQQKPGQAPRLLIYFAKTLAEGIPARFSGSGSGTDFTLTISSLEPEDFAVYYCQHHSDNPWTFGQGTKVEIKGGGGSGGGGSGGGGTGEVQLVQSGAEVKKPGESLKISCKGSGYSFTGYNMNWVRQMPGKGLEWMGNIDPYYGGTTYNRKFKGQVTISADKSISTAYLQWSSLKASDTAMYYCARSVGPMDYWGRGTLVTVSSDQ[sequence of human IgG1 Fc with changes omitted]
modifications: CD37 specific binding protein

Tested on in the first series: not listed separately
Put plainly: SMIP expression in transfected HEK293 cells, day 7 supernatants titered with Protein A sensor. Particulars: supernatants day 7. The text has this:
CAS-024 and other CD37-specific binding SMIP molecules were produced by recombinant DNA technology and transfected into HEK293 cells for 7 days. Cell culture supernatants were harvested on day 7 and titered using Octec Q Protein A sensor.
With B1, the “Protein Titer” value was 0.47 µg/mL.
Same read-out and setting: as for B2, the figure is 2.39 µg/mL; as for B3, 0.70 µg/mL; as for B4, 2.16 µg/mL.

For another series, the target named is T1, CD37 on Ramos cells (Homo sapiens, UniProt P11049).
T1 construct: endogenous in cells; host or cells: Ramos cells
T1 sequence (P11049 1-281): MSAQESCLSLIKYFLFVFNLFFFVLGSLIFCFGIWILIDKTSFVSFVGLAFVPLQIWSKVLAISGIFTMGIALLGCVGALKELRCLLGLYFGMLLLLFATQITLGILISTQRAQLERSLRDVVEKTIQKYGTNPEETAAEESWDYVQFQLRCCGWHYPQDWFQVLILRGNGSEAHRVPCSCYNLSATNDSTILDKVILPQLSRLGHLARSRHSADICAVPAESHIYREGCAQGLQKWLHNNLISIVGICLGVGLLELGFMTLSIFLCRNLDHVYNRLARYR
The series can be described thus: FMAT competition assay against FMAT Blue labeled CAS-006 for binding to Ramos cells. Conditions: Ramos cells, data not shown. The source says:
A competition assay was used to compare the binding affinity of different anti-CD37 specific small modular immunopharmaceutical (SMIP) molecules to CD-37 found on Ramos cells (a B-lymphoblastoid cell line derived from a Burkitt lymphoma). An SEC purified chimeric anti-CD37 SMIP molecule (CAS-006, SEQ ID NO:247) was labeled with the FMAT Blue® fluorescence dye (Applied Biosystems) and used as the standard to compete with purified unlabeled chimeric anti-CD37 SMIP molecule (positive control) and purified unlabeled humanized anti-CD37 SMIP test molecules. […] Briefly, the reagent FMAT Blue® labeled chimeric anti-CD37 SMIP molecule was diluted to 2 μg/ml in FACS blocking buffer and the purified protein samples (CAS-001 (SEQ ID NO:6), CAS-002 (SEQ ID NO:48), CAS-003 (SEQ ID NO:52), and CAS-024 (SEQ ID NO:253)) were serially diluted 1:2 to concentrations ranging from 50 μg/ml to 0.02 μg/ml. Ramos cells were harvested at 1,000 rpm for 5 minutes and resuspend in FACS blocking buffer at 4×10^6 cells/10 ml buffer. To each well of a black 96-well plate the following was added: 50 μl sample, 50 μl FMAT Blue® labeled chimeric anti-CD37 SMIP molecule, and 50 μl Ramos cells (4×10^4/well). The plates were incubated at room temperature for 30 min and read on an 8200 Cellular Detection System (Applied Biosystems) gated for middle cell size and low signal.
A competition assay as described in Example 4 was used to compare the binding affinity of different mouse-human hybrid anti-CD37 SMIP molecules compared to CAS-024 binding to Ramos cells. An SEC purified chimeric anti-CD37 SMIP molecule (CAS-006, SEQ ID NO:247) was labeled with the FMAT Blue® fluorescence dye (Applied Biosystems) and used as the standard to compete with purified unlabeled chimeric anti-CD37 SMIP molecule (CAS-006, positive control) and purified unlabeled humanized anti-CD37 SMIP test molecules—CAS-002 (SEQ ID NO:48), CAS-003 (SEQ ID NO:52), CAS-014 (SEQ ID NO:251), CAS-017 (SEQ ID NO:252), and CAS-024 (SEQ ID NO:253).
Consider B5, for which the “binding activity compared to CAS-001 or CAS-024” value is reported as “detectable but severely decreased binding”.

The same series, now with this note: competition with labeled CAS-006, Ramos cells.
For the molecule B6, the “affinity for CD37 compared with parent chimeric CAS-006” value is on record as “significantly less than CAS-006 or CAS-024”.
On the same count and under the same terms, under B2 stands “lower binding affinity”; under B3, “higher than CAS-006”.
On the same count and under the same terms, as for B4, the entry is “higher than CAS-006”.

Tested on in a further series: not listed separately
Put plainly: SMIP expression in transfected CHO cells, supernatants titered with Protein A sensor. Set-up: species or system Chinese Hamster Ovary (CHO). Conditions: shake flasks, culture supernatants. On the procedure:
CAS-024 and other CD37-specific binding SMIP molecules were cloned into a Chinese Hamster Ovary (CHO) mammalian cell expression system. Transfected CHO cells that produced the SMIP molecules were cultured in shake flasks and harvested cell culture supernatants were titered using Octec Q Protein A sensor.
As to B6, the “Protein Titer Range” value was 65 to 80 µg/mL.
Still for that read-out and setting: as for B1, the figure is 200 to 280 µg/mL.
On to B2, for which the “Protein Titer Range” value lay within 300 to 360 µg/mL.

(Values after patent US8333966B2, “CD37 immunotherapeutics and uses thereof” (Emergent Product Development Seattle, LLC, priority 2008, dated 2012).)
